# Screen size: about 310,000 compounds; about 14,000 (4.5%) showed an effect of 50% or more. The effect is printed as a negative number. The list shows a part of the results.
# Biological target: human ether-à-go-go-related gene (hERG) potassium channel (human, UniProt Q12809)
# Experiment: primary screen, population patch clamp on CHO cells stably expressing hERG
# 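Further: peak tail current of the secondary pulse compared with the same well before compound.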
# human ether-à-go-go-related gene (hERG) potassium channel, sequence (Q12809 whole entry, looked up): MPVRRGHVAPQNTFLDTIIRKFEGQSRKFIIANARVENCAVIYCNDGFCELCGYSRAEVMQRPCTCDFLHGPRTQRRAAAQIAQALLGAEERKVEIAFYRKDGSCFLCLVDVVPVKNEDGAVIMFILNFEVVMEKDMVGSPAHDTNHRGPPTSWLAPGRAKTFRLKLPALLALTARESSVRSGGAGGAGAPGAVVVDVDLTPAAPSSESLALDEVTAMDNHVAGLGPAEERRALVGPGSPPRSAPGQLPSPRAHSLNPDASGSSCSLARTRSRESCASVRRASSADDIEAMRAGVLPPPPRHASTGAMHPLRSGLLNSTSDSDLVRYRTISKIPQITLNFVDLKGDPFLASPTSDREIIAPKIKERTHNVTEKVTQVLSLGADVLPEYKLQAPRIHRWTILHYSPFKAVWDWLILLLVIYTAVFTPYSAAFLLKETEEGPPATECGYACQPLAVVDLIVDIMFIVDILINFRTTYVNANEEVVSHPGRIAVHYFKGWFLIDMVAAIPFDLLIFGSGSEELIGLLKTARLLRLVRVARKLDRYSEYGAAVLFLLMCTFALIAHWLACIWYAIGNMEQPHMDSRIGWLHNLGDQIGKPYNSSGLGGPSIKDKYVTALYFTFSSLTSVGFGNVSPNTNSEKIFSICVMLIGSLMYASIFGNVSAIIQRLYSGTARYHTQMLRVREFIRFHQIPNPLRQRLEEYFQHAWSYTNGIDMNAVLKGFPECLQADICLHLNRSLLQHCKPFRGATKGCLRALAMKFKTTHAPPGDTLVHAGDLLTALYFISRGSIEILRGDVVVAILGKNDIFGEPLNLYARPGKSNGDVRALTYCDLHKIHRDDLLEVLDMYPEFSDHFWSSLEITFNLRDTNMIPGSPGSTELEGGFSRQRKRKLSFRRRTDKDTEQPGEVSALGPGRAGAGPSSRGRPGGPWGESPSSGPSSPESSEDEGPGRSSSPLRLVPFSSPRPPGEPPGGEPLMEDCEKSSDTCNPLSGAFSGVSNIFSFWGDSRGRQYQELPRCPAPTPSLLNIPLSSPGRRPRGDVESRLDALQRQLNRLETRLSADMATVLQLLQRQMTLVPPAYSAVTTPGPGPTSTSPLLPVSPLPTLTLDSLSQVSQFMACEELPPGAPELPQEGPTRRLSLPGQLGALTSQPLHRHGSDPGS
row,Compound,"hERG current change (%, negative = inhibition) at 10uM [%]"
1,Cc1c(CCC(=O)N[C@@H](C)C(=O)O)c(=O)oc2cc3occ(-c4ccccc4)c3cc12,-1.45
2,Cc1cc([N+](=O)[O-])ccc1NC(=O)c1cncc(Br)c1,-12.5
3,O=C(N[C@@H](Cc1ccccc1)C(=O)OCc1ccccc1)c1nc[nH]c1C(=O)N1CCN(c2ccccc2)CC1,3.18
4,CC1CCC/C(=N/Nc2ccc([N+](=O)[O-])cc2[N+](=O)[O-])C1 (centres unmarked),-17.6
5,COc1ccc(NC(=S)N(CCC(C)C)C2CCN(C(C)C)CC2)cc1Cl,-68.1
6,O=C(c1ccccc1)C1CCN(C(=O)Nc2ccccc2)CC1,-2.26
7,Cc1[nH]nc(N)c1N=Nc1ccc(Br)cc1,13.1
8,CCN(c1cccc(C)c1)C(C(=O)Nc1ccc(OC)cc1)c1cc2c(cc1[N+](=O)[O-])OCO2 (centres unmarked),21.1
9,COc1ccccc1CNC(=O)c1ccc(OC(F)F)c(OC)c1,-32.1
10,Cc1[nH]c2ccc(C(=O)NCCCN3CCCC3)cc2c1C,9.34
11,CCOC(=O)CCNC(=O)Nc1ccc2nc(C)n(Cc3ccccc3Cl)c(=O)c2c1,-1.79
12,O=C(CN1C(=O)c2ccccc2C1=O)c1ccccc1,7.95
13,O=S(=O)(/C=C/c1ccccc1)n1cnc2ccccc21,4.46
14,CCOC(=O)c1[nH]c(C)c(C(=O)N2CCN(c3ccc(F)cc3)CC2)c1C,-7.49
15,Cc1cc(C)nc(SCC(=O)NC2=NN=C(c3ccc(Br)cc3)CS2)n1,-4.44
16,COc1ccccc1/C=C/C=N/NC(=O)c1cccs1,6.69
17,CCCS(=O)(=O)N1CCCC(C(=O)Oc2ccc(C)c(C)c2)C1 (centres unmarked),11.6
18,CCOC(=O)C1CCCN(c2c(N3CCN(C)CC3)c(=O)c2=O)C1 (centres unmarked),8.41
19,CCN(CC(=O)Nc1cc(Cl)ccc1C)C(=O)C1CC1,7.6
20,CCc1cc2c(=O)c(Oc3ccccc3F)c(C)oc2c(CN(C)C)c1O,4.47
21,CC1=C(C#N)C(=O)NC(C)(C)C1,15.6
22,CCCCC(=O)NNC(=S)NC(=O)c1ccc([N+](=O)[O-])cc1,9.04
23,CCc1ccc(S(=O)(=O)N/N=C(/C)c2ccncc2)cc1,-20.1

row,Compound,"hERG current change (%, negative = inhibition) at 10uM [%]"
1,NNC(=O)c1ccc([N+](=O)[O-])c(CS(=O)(=O)c2ccc(Cl)cc2)c1,-23
2,CC(=O)Nc1ccc(S(=O)(=O)N2CCN=C2SCc2cccc(C)c2)cc1,-15.5
3,CCC(=O)N1CCN(c2ccc(NC(=O)c3ccc(N4CCCC4)c([N+](=O)[O-])c3)cc2)CC1,7.43
4,COc1ccc(N2CCN(C3CCCN(Cc4cccc(OC)c4)C3)CC2)cc1 (centres unmarked),-64.4
5,CC(C)Oc1ccc(C(=O)N2CCCC2C(=O)O)cc1 (centres unmarked),12.2
6,COCc1cc(C)c2c(N)c(C#N)sc2n1,-3.95
7,CCCOP(=O)(c1ccc(N(C)C)cc1)C(O)c1ccc(Br)cc1 (centres unmarked),-2.71
8,Cc1csc(NC(=O)c2ccc(S(C)(=O)=O)cc2)n1,-5.37
9,Cc1ccccc1-n1c(Cn2c(=O)sc3ccccc32)nnc1SCC(=O)NCC1CCCO1 (centres unmarked),-2.85
10,Cc1cc2c(nn1)CCc1c-2no[n+]1[O-],17.1
11,CCOc1ccc(CCNC(=O)C2CCN(S(=O)(=O)N3CCCCC3)CC2)cc1OCC,-12.4
12,COc1cccc(-c2ncc3ccccc3c2COC(=O)c2ccc(C(C)(C)C)cc2)c1,13.3
13,O=C(c1cc(-c2ccc(Cl)c(Cl)c2)on1)N1CCCCC1,-16.9
14,COc1ccc(-c2csc(NC(=S)NC(=O)/C=C/c3ccccc3)n2)cc1Br,20.1
15,C=CCN1C(=O)c2oc3ccccc3c(=O)c2C1c1ccc(O)c(OC)c1 (centres unmarked),10.7
16,COc1ccc2[nH]c(C)c(CCN3C(=O)OC(C)(C)C3(C)O)c2c1 (centres unmarked),9.02
17,O=C(Nc1ccccc1F)C1COc2ccccc2O1 (centres unmarked),7.79
18,COC(=O)c1c(NC(=O)COC(=O)CCNS(=O)(=O)c2ccc(NC(C)=O)cc2)sc(C)c1C,-15.8
19,O=C(Cn1cnc2c(cnn2-c2ccc(Cl)cc2)c1=O)NCCc1ccccc1,13.3
20,Cc1ccc(CN2CCCN(C)CC2)c(C)c1,11.4
21,O=C(C1CCN(S(=O)(=O)N2CCC3(CC2)OCCO3)CC1)N1CCOCC1,19.9
22,COc1ccc2c(-c3ccccc3)cc(=O)[nH]c2c1,1.14
23,COc1ccc(C(=O)N2CCc3cc(OC)c(OC)cc3C2c2ccc(OC)c(OC)c2)cc1OC (centres unmarked),1.43

row,Compound,"hERG current change (%, negative = inhibition) at 10uM [%]"
1,O=C1OCCN1CCN(CN1C(=O)CCC1=O)CN1C(=O)CCC1=O,2.25
2,Cc1ncc(CN2CCCC(C(=O)c3sccc3C)C2)s1 (centres unmarked),24.7
3,Cc1ccc(NC(=O)COC(=O)c2ccc3c(=O)n4c(nc3c2)CCC4)c(Br)c1,14
4,Cc1cc(OCC(=O)N2CCC(C(N)=O)CC2)c2c3c(c(=O)oc2c1)CCCC3,0.283
5,CC(NC(=O)CN1C(=O)NC2(CCCCCC2)C1=O)c1ccccc1Cl (centres unmarked),-7.3
6,Cc1cc(N2C(=O)C3CC=CC(C)C3C2=O)no1 (centres unmarked),16.5
7,COc1ccc(/C=C/C2=CCN(C)CC2)cc1.Cl,-19.7
8,CCOC(=O)C(NC(=O)Cc1ccccc1)(Nc1cc(C)on1)C(F)(F)F (centres unmarked),3.97
9,O=C(COC(=O)/C=C/c1ccc(F)cc1)Nc1ccccc1-c1ccccc1,13
10,CN(CCC1CCOCC1)C(=O)C1CCC(=O)N(CCc2ccccc2)C1 (centres unmarked),-15.1
11,CSc1ccccc1C(=O)N1CCC(CCC(=O)NCc2ccc(F)cc2)CC1,-12.4
12,O=C(O)c1ccccc1-n1c(-c2ccccc2)cc2c1CCCC2=O,10.4
13,S=C(NCc1ccc(Cl)cc1)Nc1ccc(Cl)cc1Cl,5.81
14,CCn1c(COc2cccc(C)c2)nnc1SCC(=O)Nc1cccc(C(=O)OC)c1,-2.45
15,Cn1cc(S(=O)(=O)NCc2cccs2)c(=O)n(C)c1=O,3.21
16,COc1ccc(OC(=O)CN2C(=O)C3C4CCC(C4)C3C2=O)cc1 (centres unmarked),4.71
17,O=C(O)CCC(=O)N1N=C(c2ccc(Br)cc2)CC1c1cccc(Br)c1 (centres unmarked),10.1
18,COC(=O)C(Cc1ccc(O)cc1)NC(=O)CCC(=O)Nc1ccc(S(N)(=O)=O)cc1 (centres unmarked),-1.23
19,Cc1nc(N2CCN(Cc3ccccc3)CC2)c(C#N)c2c1COC(C)(C)C2,-5.21
20,CCOC(=O)C1CN(S(=O)(=O)c2ccc(C)cc2)c2ccccc2O1 (centres unmarked),16.8
21,COc1cccc(CN2CCc3[nH]c(=S)[nH]c(=O)c3C2)c1,15.9
22,COc1ccc(CCNCc2ccccc2F)cc1OC.Cl,-7.61
23,COc1cccc(CN(C(=O)Cc2c[nH]c3ccccc23)C(C(=O)NC2CCCCC2)c2cccs2)c1 (centres unmarked),33.9

row,Compound,"hERG current change (%, negative = inhibition) at 10uM [%]"
1,COc1cccc(/C=N/c2nc3ccccc3n2C)c1O,8.75
2,CCCc1nnc(NC(=O)CCC(=O)NC2CCCC2)s1,7.93
3,CN(C)S(=O)(=O)c1cccc(COc2cccnc2[N+](=O)[O-])c1,-5.22
4,COc1ccccc1N(C)S(=O)(=O)c1ccc(C(=O)NC(C)(C)C)cc1,-0.104
5,C/C=C(\C)C(=O)NCCN1C2=NC[C@@H](C)N2C[C@@H]1Cc1ccc(OC)cc1,0.0958
6,COc1ccc(NC(=O)C2CCN(C(=O)Cc3ccccc3)CC2)c(OC)c1,20.1
7,Nc1nc(SCc2cccc([N+](=O)[O-])c2)n[nH]1,29.4
8,COCC(C)NC(=O)/C(=C/c1ccccc1)c1ccccc1 (centres unmarked),-25
9,CCOC(=O)c1sc(=S)n(CC)c1N,0.458
10,CCCCCCn1c(N)c(C(=O)NCCN2CCOCC2)c2nc3ccccc3nc21,-8.61
11,CC(C)CC(=O)N1CCC(N(CCc2ccccc2)Cc2ccccc2)CC1.O=C(O)C(=O)O,-46.8
12,CC1CC(C)CN(C(=O)COC(=O)c2ccc3ncsc3c2)C1 (centres unmarked),-11.4
13,O=S(=O)(c1cccc(C(F)(F)F)c1)N1CCN(c2cnccn2)CC1,-3.63
14,Cc1cc(C(=O)OCC(=O)Nc2ccccc2Cl)c(C)o1,7.67
15,COc1ccc(/C=C2/SC(=S)N(CCCC(=O)Nc3ccc(O)cc3)C2=O)cc1,-4.48
16,Cn1cnnc1SC(C(=O)Nc1cccc(C(F)(F)F)c1)c1ccccc1 (centres unmarked),-34.1
17,CCOC(=O)c1ccc(NC(=O)C2C3CCCCC32)cc1 (centres unmarked),5.24
18,COc1cccc(N2CC(C(=O)NNC(=O)c3ccc(Cl)cc3)CC2=O)c1 (centres unmarked),9.08
19,N#C/C(C(=O)NCc1ccccc1)=C1\SC(CCO)C(=O)N1c1ccccc1 (centres unmarked),1.11
20,COCc1nnc(SCC(=O)NC(C)c2ccccc2)n1-c1ccccc1 (centres unmarked),11
